# Measurements reported in PubChem BioAssay AID1745853 (National Center for Advancing Translational Sciences (NCATS), 2022).
# Some of the results follow. Shown are side measurements of this screen, not its main read-out; they come without a call.
# Key:
# Experiment in all cases: Primary Screen for Target Class Profiling of Small Molecule Inhibitors of Methyltransferases
# [1] = target: Glycine N-methyltransferase (Homo sapiens) (UniProt Q14749); conditions: purified enzyme, MTase-Glo SAH luminescence; measured here: GNMT inhibition; at 40 µM; stronger effect = lower value
# Summary of the method: (§1)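 Each enzyme was reacted with SAM and its substrate, with compounds tested once at 40 uM; SAH formed was read by MTase-Glo luminescence.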
# [2] = target: Guanidinoacetate N-methyltransferase (Homo sapiens) (UniProt Q14353); conditions: purified enzyme, MTase-Glo SAH luminescence; measured here: GAMT inhibition; at 40 µM; stronger effect = lower value
# Summary of the method: as §1
# [3] = target: Histamine N-methyltransferase (Homo sapiens) (UniProt P50135); conditions: purified enzyme, MTase-Glo SAH luminescence; measured here: HNMT inhibition; at 40 µM; stronger effect = lower value
# Summary of the method: as §1
# [4] = target: Nicotinamide N-methyltransferase (Homo sapiens) (UniProt P40261); conditions: purified enzyme, MTase-Glo SAH luminescence; measured here: NNMT inhibition; at 40 µM; stronger effect = lower value
# Summary of the method: as §1
# [5] = target: Phenylethanolamine N-methyltransferase (Homo sapiens) (UniProt P11086); conditions: purified enzyme, MTase-Glo SAH luminescence; measured here: PNMT inhibition; at 40 µM; stronger effect = lower value
# Summary of the method: as §1
# % is scaled to controls: 0 for no effect and ±100 for the full control effect.
Compound,"activity change, negative = inhibition [1] [%]","activity change, negative = inhibition [2] [%]","activity change, negative = inhibition [3] [%]","activity change, negative = inhibition [4] [%]","activity change, negative = inhibition [5] [%]"
CC1CCN(CC[C@H]2CCCN2S(=O)(=O)c2cccc(O)c2)CC1,5.18,14.1,7.4,-1.48,2.59
CCc1ccccc1CN1CCCC2(Cc3ccccc3CNC2=O)C1 (centres undefined),-6.88,-3.04,-11.6,-17.8,-3.12
COc1ccc2ccc(OCc3nc(C(=O)N4CCCNC(=O)C4)co3)cc2c1,-5,-3.88,-4.61,-6.66,-18.8
Clc1cccc(-c2nnn3c2nc(NCc2ccc4c(c2)OCO4)c2ccccc23)c1,0.826,3.93,3.23,-6.25,-3.69
CC1(C)CC[C@]2(C(=O)O[C@@H]3O[C@H](CO)[C@@H](O)[C@H](O)[C@H]3O)CC[C@]3(C)C(=CCC4[C@@]5(C)C[C@@H](O)[C@H](O)[C@@](C)(CO)C5CC[C@]43C)C2C1 (some centres undefined),-1.38,-6.37,-6.78,-22.5,-2.12
CNC(=O)CCn1ncc2cc(OCc3ccccc3-c3ccc(F)c(Cl)c3)ccc21,-3.42,2.93,-0.921,-18.2,4.95
COc1cn(-c2ccc(-n3cccn3)cc2F)nc(-c2ccnn2-c2ccccc2)c1=O,-0.238,4.48,10.8,-15.7,1.56
CNc1cc(C)nc(N2CC[C@H](N3CCOCC3)[C@H](CCC(=O)O)C2)n1,-1.56,-2.37,-19.2,-8.12,-1.99
CC(Nc1ncnc2nc[nH]c12)c1cc2cccc(Cl)c2c(=O)n1-c1ccccc1 (centres undefined),-6.26,,-0.969,,
CCCn1c(=O)c2cc(Cl)ccc2n2c(=O)n(Cc3ccc(C)cc3)nc12,6.31,0,11.2,2.2,4.35
CC(C)c1ccc(N2C(=O)c3cc4ccccc4n3CC2(C)C(=O)NC2CCCC2)cc1 (centres undefined),2.78,4.03,2.35,0.718,2.5
Cc1ccccc1CSc1nnc2n(CC(C)C)c(=O)c3cc(F)ccc3n12,-4.79,0,5.91,-4.25,4.48
Cc1ccc(NC(=O)c2ccc(CN3CCNCC3)cc2)cc1Nc1nccc(-c2cccnc2)n1,-4.71,8.64,-23.1,-15.1,-4.22
COc1ccccc1CNC(=O)C1(C)Cn2cnc(C(=O)NCc3ccc(OC(C)C)cc3)c2C(=O)N1C1CC1 (centres undefined),4.66,3.83,8.31,7.84,7.51
CCc1cc2c(cc3n2CC(C)(C(=O)NC2CCCCCC2)N(CCCOC(C)C)C3=O)s1 (centres undefined),3.98,1.59,7.46,9.34,0.21
CC(C)C(N)C(=O)OCCOCn1cnc2c(=O)[nH]c(N)nc21 (centres undefined),-2.98,,-3.63,,

Compound,"activity change, negative = inhibition [1] [%]","activity change, negative = inhibition [2] [%]","activity change, negative = inhibition [3] [%]","activity change, negative = inhibition [4] [%]","activity change, negative = inhibition [5] [%]"
NC(N)=N[C@@H](CCC(=O)O)C(=O)O,-4.5,6.35,-1.86,-3.86,7.7
O=C1COc2ccc(-c3ccoc3)nc2CN1Cc1ccccc1,-43.6,-10.3,-5.48,-15,-3.38
COC[C@@H]1CN(S(=O)(=O)c2ccc(C)cc2)C[C@H]1c1ccncc1,-1,0.055,1.34,-4.67,1.58
CCC1c2ccc(C)n2CCN1C(=O)Nc1ccc(C)c(F)c1 (centres undefined),0.239,4.72,0.747,-3.01,-2.87
Cc1cnc(C2CC2)n1CC1CCNCC1,-6.16,-7.97,-27.1,-13.4,-7.19
O=C(Cn1c(=O)oc2cc(S(=O)(=O)NCc3ccccc3)ccc21)NCc1ccccc1Cl,14.9,3.31,12.1,7.22,8.35
COc1ccc(CN2CCc3nc(C(=O)NCCOc4ccccc4)oc3CC2)cn1,-25.3,-8.38,-6.25,-14.1,-2.79
CCN1CCC2(CCC1=O)CN(Cc1nc(C(=O)NC)no1)CCN2C (centres undefined),1.37,-2.5,1.85,-0.771,3.49
N#Cc1ccc2ncnc(NCCc3ccccc3)c2c1,-21.1,2.17,2.74,-10.7,-4.49
COC(=O)c1cc2n(n1)CC(C)(C(=O)NC1CCC(C)CC1)N(Cc1ccccc1Cl)C2=O (centres undefined),1.63,2.76,5.84,-3.86,-0.573
COc1ccc(Cl)cc1NS(=O)(=O)c1ccc2[nH]c(=O)[nH]c2c1,3.83,0.975,3.56,-1.76,-3.82
COc1cc(Cl)c(C)cc1NS(=O)(=O)c1ccc2c(c1)n(C)c(=O)n2C,9.3,0,5.35,-7.49,2.33
CCCSCCCNC(=O)c1cc2n(n1)CC(C)(C(=O)NCc1ccc(F)cc1)N(C)C2=O (centres undefined),1.85,0,-3.49,6.49,3.23
CN(C)C[C@@H]1CN(C)C[C@H]1NC(=O)NCc1ccc(OC(F)(F)F)cc1,-1.86,-4.84,-2.29,-13.1,-2.26
COc1ccccc1-c1cc(C(=O)N2CCN(c3ncccn3)CC2)nn2cccc12,-2.21,-5.06,0.238,-9.32,-7.47
